Measurements from the supplement of paper PMC4604168 (melanoma cell lines).
Some of the results follow. Repeats are few or missing, and single values can be far off.

Legend:
Test in all cases: cell count relative to DMSO control; melanoma cells; higher = more viable cells
Conditions in all cases: library dose: standard library concentration; 72 h
[1] = system: G361
[2] = system: IPC-298
[3] = system: IST-MEL1
[4] = system: LB2518-MEL
[5] = system: LOXIMVI
[6] = system: MEL-HO
[7] = system: MZ2-MEL
[8] = system: MeWo
[9] = system: RPMI7951
[10] = system: RVH-421
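Further: cells treated in 1,536-well plates, then fixed and DAPI-stained, with nuclei counted from automated high-throughput microscope images.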

OCCn1cc(-c2cnc3nnn(Cc4ccc5ncccc5c4)c3n2)cn1 + O=c1cc(-c2cccc3c2Sc2ccccc2S3)oc(N2CCOCC2)c1 [KU55933] (first compound 5 µM, partner dose 5 µM)
cell count [1]: 80.1% | cell count [2]: 88.8% | cell count [3]: 88.1% | cell count [4]: 107% | cell count [5]: 99.9% | cell count [6]: 82.9% | cell count [7]: 81.1% | cell count [8]: 86.7% | cell count [9]: 52.4% | cell count [10]: 112%

C[C@]1(c2nc3c(C(N)=O)cccc3[nH]2)CCCN1 [Veliparib] + CO[C@@H]1[C@H](N(C)C(=O)c2ccccc2)C[C@H]2O[C@]1(C)n1c3ccccc3c3c4c(c5c6ccccc6n2c5c31)C(=O)NC4 [Midostaurin] (first compound 7 µM, partner dose 0.4 µM)
cell count [1]: 68.3% | cell count [2]: 66.7% | cell count [3]: 68.4% | cell count [4]: 49.4% | cell count [5]: 55.5% | cell count [6]: 77.9% | cell count [7]: 65.7% | cell count [8]: 77.9% | cell count [9]: 41.2% | cell count [10]: 58.7%

OCCn1cc(-c2cnc3nnn(Cc4ccc5ncccc5c4)c3n2)cn1 + COc1ccc(-c2ccc3c(N4CCOCC4)nc(N4C[C@@H](C)O[C@@H](C)C4)nc3n2)cc1CO [KU0063794] (first compound 5 µM, partner dose 0.1 µM)
cell count [1]: 68.9% | cell count [2]: 60.8% | cell count [3]: 101% | cell count [4]: 84.9% | cell count [5]: 45.3% | cell count [6]: 73.2% | cell count [7]: 62.9% | cell count [8]: 70.1% | cell count [9]: 53.4% | cell count [10]: 104%

Cc1nc(Nc2ncc(C(=O)Nc3c(C)cccc3Cl)s2)cc(N2CCN(CCO)CC2)n1 [dasatanib] + NCC(=O)Nc1ccc(-n2nc(C(F)(F)F)cc2-c2ccc3c(ccc4ccccc43)c2)cc1 [OSU03012] (first compound 0.02 µM, partner dose 5 µM)
cell count [1]: 64.5% | cell count [2]: 53.6% | cell count [3]: 59.6% | cell count [4]: 77.6% | cell count [5]: 17.3% | cell count [6]: 72.7% | cell count [7]: 68.2% | cell count [8]: 74.7% | cell count [9]: 48.4% | cell count [10]: 47.8%

NC(=O)Nc1cc(-c2cccc(F)c2)sc1C(=O)N[C@H]1CCCNC1 + COc1cc2c(Oc3ccc4[nH]c(C)cc4c3F)ncnc2cc1OCCCN1CCCC1 [cediranib] (first compound 0.1 µM, partner dose 2 µM)
cell count [1]: 82.8% | cell count [2]: 74.7% | cell count [3]: 85.3% | cell count [4]: 60.4% | cell count [5]: 42.9% | cell count [6]: 77% | cell count [7]: 107% | cell count [8]: 60.6% | cell count [9]: 24.7% | cell count [10]: 108%

NC(=O)Nc1cc(-c2cccc(F)c2)sc1C(=O)N[C@H]1CCCNC1 + O=C(O)C(=O)Nc1sc2c(c1C(=O)O)CCNC2 [TCS401] (first compound 0.1 µM, partner dose 8.33333 µM)
cell count [1]: 82.8% | cell count [2]: 86.4% | cell count [3]: 110% | cell count [4]: 60.8% | cell count [5]: 94.9% | cell count [6]: 78.9% | cell count [7]: 105% | cell count [8]: 56.8% | cell count [9]: 41.8% | cell count [10]: 91%

C[C@]1(c2nc3c(C(N)=O)cccc3[nH]2)CCCN1 [Veliparib] + COc1ccc(-c2ccc3c(N4CCOCC4)nc(N4C[C@@H](C)O[C@@H](C)C4)nc3n2)cc1CO [KU0063794] (first compound 7 µM, partner dose 0.1 µM)
cell count [1]: 66.6% | cell count [2]: 70.4% | cell count [3]: 101% | cell count [4]: 69.9% | cell count [5]: 75.2% | cell count [6]: 81.4% | cell count [7]: 78% | cell count [8]: 73% | cell count [9]: 86.6% | cell count [10]: 86.1%

C[C@]1(c2nc3c(C(N)=O)cccc3[nH]2)CCCN1 [Veliparib] + COc1ccc2c(c1)CCC1C2CCC2(C)C(NCCCCCCN3C(=O)C=CC3=O)CCC12 [U73122] (first compound 7 µM, partner dose 2 µM)
cell count [1]: 53.9% | cell count [2]: 85.7% | cell count [3]: 81.2% | cell count [4]: 81.5% | cell count [5]: 68% | cell count [6]: 88.4% | cell count [7]: 84.7% | cell count [8]: 48.8% | cell count [9]: 17.2% | cell count [10]: 83.2%

NC(=O)Nc1cc(-c2cccc(F)c2)sc1C(=O)N[C@H]1CCCNC1 + Cc1cc(N2CCOCC2)cc2[nH]c(-c3c(NC[C@@H](O)c4cccc(Cl)c4)cc[nH]c3=O)nc12 [BMS536924] (first compound 0.1 µM, partner dose 1 µM)
cell count [1]: 65.4% | cell count [2]: 77.7% | cell count [3]: 85.2% | cell count [4]: 60.7% | cell count [5]: 48.6% | cell count [6]: 73.8% | cell count [7]: 99.3% | cell count [8]: 53.9% | cell count [9]: 27.3% | cell count [10]: 80.6%

NC(=O)Nc1cc(-c2cccc(F)c2)sc1C(=O)N[C@H]1CCCNC1 + COc1ccc(-c2ccc3c(N4CCOCC4)nc(N4C[C@@H](C)O[C@@H](C)C4)nc3n2)cc1CO [KU0063794] (first compound 0.1 µM, partner dose 0.1 µM)
cell count [1]: 79.9% | cell count [2]: 53.6% | cell count [3]: 79.5% | cell count [4]: 51.1% | cell count [5]: 57.2% | cell count [6]: 75% | cell count [7]: 60.6% | cell count [8]: 70.9% | cell count [9]: 31.9% | cell count [10]: 115%

C[C@]1(c2nc3c(C(N)=O)cccc3[nH]2)CCCN1 [Veliparib] + Oc1cc(-c2nc(-c3ccccc3)[nH]c2-c2ccncc2)ccc1Cl [L779450] (first compound 7 µM, partner dose 1 µM)
cell count [1]: 65% | cell count [2]: 101% | cell count [3]: 84.4% | cell count [4]: 96.4% | cell count [5]: 130% | cell count [6]: 89.6% | cell count [7]: 91.7% | cell count [8]: 82.3% | cell count [9]: 94.3% | cell count [10]: 75.6%

Cc1nc(Nc2ncc(C(=O)Nc3c(C)cccc3Cl)s2)cc(N2CCN(CCO)CC2)n1 [dasatanib] + C=CCn1c(=O)c2cnc(Nc3ccc(N4CCN(C)CC4)cc3)nc2n1-c1cccc(C(C)(C)O)n1 [MK1775] (first compound 0.02 µM, partner dose 0.1 µM)
cell count [1]: 62.8% | cell count [2]: 69.5% | cell count [3]: 51.3% | cell count [4]: 59.2% | cell count [5]: 16.6% | cell count [6]: 67.3% | cell count [7]: 57.8% | cell count [8]: 70.6% | cell count [9]: 26.2% | cell count [10]: 72.4%
